Out of some 310,000 compounds screened, about 2,200 (0.71%) showed an effect of 50% or more. The effect is printed as a negative number. Some of the results follow.
Target: human ether-à-go-go-related gene (hERG) potassium channel (human, UniProt Q12809)
Test: primary screen, population patch clamp on CHO cells stably expressing hERG

Chain of human ether-à-go-go-related gene (hERG) potassium channel (Q12809 whole entry, looked up): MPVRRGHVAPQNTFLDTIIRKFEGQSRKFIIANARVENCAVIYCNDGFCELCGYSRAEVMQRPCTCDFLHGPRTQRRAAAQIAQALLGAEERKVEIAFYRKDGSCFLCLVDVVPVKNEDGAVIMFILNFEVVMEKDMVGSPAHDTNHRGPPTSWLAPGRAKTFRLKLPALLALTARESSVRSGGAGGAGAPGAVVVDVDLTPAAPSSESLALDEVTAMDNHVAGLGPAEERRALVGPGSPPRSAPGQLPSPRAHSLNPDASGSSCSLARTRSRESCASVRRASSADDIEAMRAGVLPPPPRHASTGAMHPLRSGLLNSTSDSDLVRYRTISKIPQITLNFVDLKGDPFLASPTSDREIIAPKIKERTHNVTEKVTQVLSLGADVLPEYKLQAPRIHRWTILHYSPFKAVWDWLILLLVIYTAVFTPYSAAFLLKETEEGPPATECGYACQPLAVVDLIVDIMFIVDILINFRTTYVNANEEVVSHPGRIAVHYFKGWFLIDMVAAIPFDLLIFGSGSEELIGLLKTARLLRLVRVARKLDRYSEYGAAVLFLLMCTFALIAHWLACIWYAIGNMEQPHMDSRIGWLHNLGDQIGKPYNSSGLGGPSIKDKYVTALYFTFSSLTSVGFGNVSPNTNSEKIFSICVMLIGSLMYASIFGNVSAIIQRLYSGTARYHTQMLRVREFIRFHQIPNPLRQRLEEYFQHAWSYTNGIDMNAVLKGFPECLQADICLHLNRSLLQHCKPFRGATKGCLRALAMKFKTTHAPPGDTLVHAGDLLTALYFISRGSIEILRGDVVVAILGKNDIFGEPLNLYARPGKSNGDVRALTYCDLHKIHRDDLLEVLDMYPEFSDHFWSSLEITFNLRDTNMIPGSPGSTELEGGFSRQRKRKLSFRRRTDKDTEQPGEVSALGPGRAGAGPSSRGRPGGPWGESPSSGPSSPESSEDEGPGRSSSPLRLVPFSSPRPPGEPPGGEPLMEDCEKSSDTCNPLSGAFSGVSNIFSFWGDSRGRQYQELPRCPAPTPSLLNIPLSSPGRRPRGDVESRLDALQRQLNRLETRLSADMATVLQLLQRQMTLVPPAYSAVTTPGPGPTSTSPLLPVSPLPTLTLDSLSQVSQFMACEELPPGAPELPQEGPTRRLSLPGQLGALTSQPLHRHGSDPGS

SMILES | hERG current change (%, negative = inhibition) at 1uM [%]
c1ccc(-c2nnsc2Sc2ccccn2)cc1 | 6.49
CCOc1ccc(Cl)cc1S(=O)(=O)N1CCC(C(=O)NCc2ccco2)CC1 | 5.93
O=C(OCC(=O)N1CCCC1)c1ccccc1OCc1ccccc1 | 6.29
O=C(NCCCN1CCN(c2cccc(Cl)c2)CC1)c1nc(-c2ccncc2)no1 | -30.6
CC(=O)Nc1cccc(-c2nn[nH]n2)c1 | 9.69
Cc1ccc(NC(=O)CSc2nnc(-c3ccccn3)n2C)cc1 | -1
O=C(Nc1cccnc1)c1cc([N+](=O)[O-])ccc1Cl | 5.62
CCC(=O)N1CCN=C1SCc1c(F)cccc1Cl | 1.16
Cc1ccc(Cn2nc(C)cc2C(=O)Nc2ccc(Cl)cc2)cc1 | 13.8
CN(Cc1cn(C)nc1-c1cccc(Cl)c1)CC1CCCCO1 (stereo not drawn) | 3.38
O=C(Nc1nccs1)c1cnccn1 | -3.18
CCNc1nc(OC)nc(Oc2ccc(=O)n(-c3ccccc3)n2)n1 | 13.5
O=C(COC(=O)c1ccccc1N1C(=O)C2C3CCC(C3)C2C1=O)c1ccccc1 (stereo not drawn) | 7.07
CCN(CC)CCNCC(O)(c1ccc(Cl)cc1)c1ccc(Cl)cc1 | -84.4
COc1ccc(Br)cc1CNC(=O)Cc1cccs1 | 9.25
CC(=O)c1c(C)[nH]c(C(=O)COC(=O)CNS(=O)(=O)c2ccccc2)c1C | 4.64
O=C(Nc1ccc(S(=O)(=O)N2CCOCC2)cc1)c1cccnc1 | 5.15
CCOc1ccc(NC(=O)c2ccc(NC(=O)CN3C(=O)C(=O)N(CC(C)C)C3=O)cc2)cc1 | 2.45
Cc1ccc(-c2nc3ccccc3[nH]2)cc1NC(=O)c1sc2ccccc2c1Cl | 12.8
Cc1noc(C)c1CSCC(=O)Nc1cc(Cl)ccc1N1CCOCC1 | -6.98
O=S(=O)(N/N=C\C=C\c1ccccc1)c1ccc(Br)cc1 | 0.94
COc1cc([N+](=O)[O-])ccc1NC(=S)N1CCOCC1 | -1.23
COc1ccc2[nH]c(C(=O)N(C)c3ccc(F)cc3F)cc2c1 | 12.5

SMILES | hERG current change (%, negative = inhibition) at 1uM [%]
O=C(Nc1ccccc1Cl)C1C(c2ccccc2)C1(Cl)Cl (stereo not drawn) | 13.5
COC(=O)c1cn(Cc2ccccc2C)nn1 | 6.66
CCSc1nnc(NC(=O)c2ccco2)s1 | 8.84
CNC(=O)c1oc(-c2ccc(Cl)cc2)nc1C | 3.25
CC(C)CC(NS(=O)(=O)c1ccc2c(c1)oc(=O)n2C)C(=O)N1CC=C(c2ccccc2)CC1 (stereo not drawn) | 4.42
COc1cccc(C2/C(=C(/O)c3cnn(-c4ccccc4)c3C)C(=O)C(=O)N2CCN(C)C)c1OC (stereo not drawn) | 14.3
NS(=O)(=O)c1ccc(CCNC(=O)c2ccc(OCC3CCCO3)cc2)cc1 (stereo not drawn) | 11.1
c1ccn(-c2ncnc3sc4c(c23)CCCC4)c1 | 6.23
CC1Cc2ccccc2N1C(=O)COc1ccc2c(c1)OCO2 (stereo not drawn) | 13.7
O=C(Cn1cnc2cc([N+](=O)[O-])ccc2c1=O)Nc1ccc2c(c1)OCO2 | 6.93
COc1ccc(C(=O)NC(=S)NNC(=O)c2ccncc2)cc1Br | 7.59
CCCN1C2CCCC1CC(NC(=S)Nc1cccc(C)c1C)C2 (stereo not drawn) | 21.9
COc1cc(OC)cc(C(=O)N[C@H](C(=O)Nc2nc3c(s2)CCCC3)C(C)C)c1 | 14.4
O=C(O)CCCN=Cc1c(O)c2ccccc2oc1=O | 12.8
O=C(Nc1ccccc1)c1[nH]ncc1[N+](=O)[O-] | -8.36
c1ccc2c(c1)C(=NCC1CCCO1)NC2=NCC1CCCO1 (stereo not drawn) | 2.35
O=C(CN(Cc1ccc(Cl)cc1)C(=O)CN1C(=O)COc2ccccc21)NC1CCCC1 | 12
CCC(C)c1ccc2oc(-c3ccc(NC(=O)Cn4cnc5c(=O)n(C)c(=O)n(C)c54)cc3)nc2c1 (stereo not drawn) | 14.4
Cn1nc(C(=O)NC2CCCCC2)c2ccccc2c1=O | -2.73
Cc1nn(C)c(C(=O)Nc2ccc(Br)cc2F)c1Br | 14
N#CC1(C#N)C(c2ccccc2)OC23CCCCCC2C1(C#N)C(=N)O3 (stereo not drawn) | -3.8
Cc1cc(/C=N/NC(N)=S)c(O)c(/C=N/NC(N)=S)c1 | 2.66
Cc1ccc(C)c(OCCCCn2ccnc2)c1 | -6.77

SMILES | hERG current change (%, negative = inhibition) at 1uM [%]
O=C(Nc1cccc(-c2cn3ccccc3n2)c1)c1cccs1 | 7.01
O=S(=O)(c1ccccc1)N1CCN(c2cc(-c3ccccc3)nc3ncnn23)CC1 | 1.46
COc1cccc(C(O)c2nc3ccccc3n2C(C)C)c1OC (stereo not drawn) | 10.4
Cc1ccc(/C=N/NC(=O)c2cccc(S(=O)(=O)Nc3cccc(Cl)c3)c2)o1 | 11.6
O=c1cccccc1NCc1ccccc1 | -2.21
COC(=O)c1c(C)oc(C)c1S(=O)(=O)Nc1ccc(C(C)C)cc1 | 7.58
O=C(CN(C(=O)CCC(=O)Nc1nccs1)c1ccc(F)cc1)NCc1ccc(F)cc1 | 22.5
O.[O-][N+]12CCN(CC1)c1ccccc12 | 18.7
CCC(=O)NC(c1cccc([N+](=O)[O-])c1)c1c(OC(C)=O)ccc2ccccc12 (stereo not drawn) | 5.43
COc1c(F)c(F)c(C(=O)Nc2c(C)cc(Br)cc2C)c(F)c1F | 2.51
C/C(=N\Nc1cc(C)nc(-c2ccccc2)n1)c1cccc([N+](=O)[O-])c1 | 11.1
O=C(O)CCN(Cc1ccccc1)S(=O)(=O)c1c(Cl)cccc1Cl | 11
CCC(C(=O)O/N=C(\N)c1ccc(Cl)cc1)c1ccccc1 (stereo not drawn) | 0.226
Cc1cccc(OC(C)c2ccnc3nc(/N=C/N(C)C)nn23)c1 (stereo not drawn) | -2.85
O=C(C[N+]12CCC(CC1)C(CO)C2)c1ccc([N+](=O)[O-])cc1.[Br-] (stereo not drawn) | 10.5
COc1ccc(C)cc1S(=O)(=O)N(CC(=O)N1CCOCC1)Cc1ccccc1 | 2.25
O=S(=O)(c1ccccc1)c1nc(-c2ccco2)oc1N1CCCCCC1 | 11.4
O=C(COc1ccccc1)N=C1SC2CS(=O)(=O)CC2N1Cc1ccccc1 (stereo not drawn) | 0.629
C/C(=N\NC(=O)c1ccc(-c2ccccc2)cc1)c1ccco1 | 6.21
CCOc1ccc(-c2cc(N)n(S(=O)(=O)c3ccc(OC)cc3)n2)cc1 | 7.59
CCOC(=O)N/N=C/c1ccc(N2CCOCC2)s1 | -11.1
COc1cc(Cl)c(NS(=O)(=O)c2ccc(-c3ccc(=O)[nH]n3)o2)c(OC)c1 | 10.7
O=S(=O)(Nc1nc2ccccc2nc1N1CCN(c2ccccc2F)CC1)c1ccc(Cl)cc1 | 3.5

SMILES | hERG current change (%, negative = inhibition) at 1uM [%]
CCN(CC)c1ccc(NC(=O)CN2C(=O)CC(C)(C)S(=O)(=O)c3ccccc32)c(C)c1 | 2.99
COc1ccc(OC)c(C(=O)CSc2nnc(Cc3cccs3)n2CCc2ccccc2)c1 | -6.84
O=C(O)c1cc(S(=O)(=O)N2CCCCC2)ccc1F | -6.67
CCOC(=O)c1cnc2c(c(C)nn2C)c1Oc1ccccc1F | 10.5
CC(C)(NO)/C(=N\O)c1ccccc1 | 7.23
COc1cc(C)ccc1S(=O)(=O)N1CCCCCC1 | 9.29
O=C(O)CC1(CC(=O)NCc2cc(F)cc3c2OCOC3)CCCCC1 | 9.18
O=C(CCCOc1ccccc1)N1CCCCC1 | 0.568
CCOc1ccc(NC(=O)CC2C(=O)N(c3ccc(OC)cc3)C(=S)N2Cc2ccccn2)cc1 (stereo not drawn) | 3.74
COc1ccc(CNCCc2ccc3c(c2)OCO3)c(OC)c1OC.O=C(O)C(=O)O | 11.3
CCOc1ccccc1NC(=O)CSc1nc(=O)n(Cc2ccncc2)c2c1CCC2 | 2.25
Cc1nc(-c2ccc(S(=O)(=O)N3CCN(CCc4ccccc4)CC3)s2)cs1 | 12.9
Cc1csc(NC(=O)c2cc3c(s2)CCC3)n1 | 8.92
O=C1CCC/C1=C/Nc1ccc2c(c1)OCO2 | 11.2
Cc1cccc(NC(=S)NC(=O)C2CC2)c1 | 13.6
CCSc1nnc(-c2ccc(Cl)cc2)c2ccccc12 | 7.78
Cc1ccc(S(=O)(=O)N(Cc2cccc(C)c2)C(=O)N2CCN(C)CC2)cc1 | 13.5
COc1ccc([C@H]2CC(=O)C=C(c3ccc4c(c3)OCCO4)C2)cc1 | 9.59
CC(C)C(NS(=O)(=O)c1cccs1)C(=O)NCc1ccccc1Cl (stereo not drawn) | 3.64
O=C(NC1(C(F)(F)F)NC(=O)N(Cc2cccnc2)C1=O)c1ccccc1 (stereo not drawn) | 3.47
Cc1cccc(C)c1NC(=O)c1sc(N)nc1-c1ccccc1 | 2.83
